# Experimental data as given in the supplement of paper PMC9135407.
# Values joined by “and” are separate entries in the source; they are usually repeats but may differ in a detail not shown here. Identical values can stand only once. Counter-ions that a name gives are not always drawn. The whole screen tested about 5,800 compounds, of which about 620 (11%) showed activity.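 The calls were made as follows: active = score above a cut-off or among the top three wells of a plate; in these data no inactive exceeds 0.85.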 The entries are a selection whose mix differs from that of the whole data set.
# Tested on: primary human hepatic stellate cells (donor 1)
# Test: scaled lipid accumulation score (0 = DMSO-like, 1 = nortriptyline-like); higher = stronger HSC inactivation (lipid re-accumulation), active = hit call of the paper
# Conditions: 48 h
# [1] = library stock concentration: 10 mM
# [2] = library stock concentration: 1 mM
# [3] = library stock concentration: 80 uM
# [4] = library stock concentration: 400 uM
# [5] = library stock concentration: 2 mM
# [6] = library stock concentration: 3.33 mM
smiles,measurement,setting,value
O=C1c2ccccc2C(=O)C1c1ccc(Br)cc1 [Bromindione],scaled lipid accumulation score,library stock concentration: 6.6 mM,inactive: ≤ 0
CCN(CC)CCOc1ccc(Nc2ncc3cc(-c4c(Cl)cccc4Cl)c(=O)n(C)c3n2)cc1,scaled lipid accumulation score,[1],inactive: 0.416
CCCCC/C=C\C/C=C\C/C=C\CCCCCCC(=O)O [Dihomo-gamma-linolenic acid],scaled lipid accumulation score,[2],inactive: ≤ -0.021
CCCCC/C=C\C/C=C\C/C=C\CCCCCCC(=O)O [Dihomo-.gamma.-Linolenic Acid],scaled lipid accumulation score,[2],inactive: 0.003
CN(C)CCCN1c2ccccc2CCc2ccc(Cl)cc21.Cl [Clomipramine hydrochloride],scaled lipid accumulation score,[1],active: 1.31
CN1C(=O)C(Cc2c[nH]c3ccccc23)NC1=S (configuration not stated) [Necrostatin-1],scaled lipid accumulation score,[3],inactive: 0.008
same,scaled lipid accumulation score,[4],inactive: ≤ 0
same,scaled lipid accumulation score,[5],inactive: ≤ 0
same,scaled lipid accumulation score,[6],inactive: ≤ -0.009 and inactive: ≤ 0
same,scaled lipid accumulation score,[1],inactive: ≤ 0 and inactive: 0.03
CCCCCCCC/C=C\CCCCCCCC(=O)OCC [Oleic Acid ethyl ester],scaled lipid accumulation score,[2],inactive: 0.015
CNCc1ccc(-c2[nH]c3cc(F)cc4c3c2CCNC4=O)cc1.O=P(O)(O)O,scaled lipid accumulation score,[1],active: 1.47
Cc1ccc(NC(=O)C2(c3ccc4c(c3)OC(F)(F)O4)CC2)nc1-c1cccc(C(=O)O)c1 [VX-809 (Lumacaftor)],scaled lipid accumulation score,[6],inactive: ≤ 0
same,scaled lipid accumulation score,[1],inactive: ≤ 0
C[C@H]1[C@H](C)CC[C@]2(C(=O)O[C@@H]3O[C@H](CO[C@@H]4O[C@H](CO)[C@@H](O[C@@H]5O[C@H](C)[C@H](O)[C@@H](O)[C@H]5O)[C@H](O)[C@H]4O)[C@@H](O)[C@H](O)[C@H]3O)CC[C@]3(C)C(=CC[C@@H]4[C@@]5(C)C[C@@H](O)[C@H](O)[C@@](C)(CO)[C@@H]5CC[C@]43C)[C@H]12 [Asiaticoside],scaled lipid accumulation score,,inactive: ≤ 0
"Cc1c(O)c(=O)n(-c2ccccc2)n1C [Antipyrine, 4-hydroxy]",scaled lipid accumulation score,,inactive: ≤ 0
CC(C)OC(=O)C(C)(C)Oc1ccc(C(=O)c2ccc(Cl)cc2)cc1,scaled lipid accumulation score,[1],inactive: 0.308
CC(C)OC(=O)C(C)(C)Oc1ccc(C(=O)c2ccc(Cl)cc2)cc1 [Fenofibrate],scaled lipid accumulation score,,inactive: ≤ 0
same,scaled lipid accumulation score,[2],inactive: 0.007
same,scaled lipid accumulation score,[6],inactive: ≤ 0
same,scaled lipid accumulation score,[1],inactive: ≤ 0 and inactive: ≤ -0.07
O=[N+]([O-])c1ccc(CSc2ncnc3c2ncn3[C@@H]2O[C@H](CO)[C@@H](O)[C@H]2O)cc1 [S-(4-Nitrobenzyl)-6-thioinosine],scaled lipid accumulation score,[1],inactive: 0.055
CC(=O)c1c(C)c2cnc(Nc3ccc(N4CCNCC4)cn3)nc2n(C2CCCC2)c1=O,scaled lipid accumulation score,[3],inactive: ≤ 0
same,scaled lipid accumulation score,[4],inactive: ≤ 0
same,scaled lipid accumulation score,[5],inactive: ≤ 0
same,scaled lipid accumulation score,[6],inactive: ≤ 0
same,scaled lipid accumulation score,[1],inactive: 0.483 and inactive: ≤ 0
"CCCCCCCCCCCCC/C=C/[C@@H](O)[C@H](CO)N(C)C [N,N-Dimethylsphingosine]",scaled lipid accumulation score,[2],active: 0.965
Clc1ccc2c(N3CCN(CCCN4CCN(c5ccnc6cc(Cl)ccc56)CC4)CC3)ccnc2c1 [Piperaquine tetraphosphate tetrahydrate],scaled lipid accumulation score,[1],inactive: 0.316
Cn1cc(CNCC2CCN(c3ncc(C(=O)NO)cn3)CC2)c2ccccc21,scaled lipid accumulation score,[1],active: 0.985
CC(C)(C)c1ccc(S(=O)(=O)/C=C/C#N)cc1,scaled lipid accumulation score,[1],inactive: 0.172
CN1CCCN=C1/C=C/c1cccc(O)c1 [Oxantel pamoate],scaled lipid accumulation score,,inactive: ≤ 0
Cl.O=C(NCCCN1CCCCCC1)C(c1ccccc1)C1CCCCC1 (configuration not stated),scaled lipid accumulation score,[1],active: 0.897
CC(N)CCCC(C)(C)O (configuration not stated) [Heptaminol hydrochloride],scaled lipid accumulation score,,inactive: ≤ 0
same,scaled lipid accumulation score,[1],inactive: ≤ -0.027
C[C@@H](O[C@H]1OCCN(Cc2n[nH]c(=O)[nH]2)[C@H]1c1ccc(F)cc1)c1cc(C(F)(F)F)cc(C(F)(F)F)c1 [Aprepitant],scaled lipid accumulation score,[6],inactive: ≤ 0
same,scaled lipid accumulation score,[1],inactive: ≤ 0
Oc1cccc(O)c1 [Resorcinol],scaled lipid accumulation score,[1],inactive: ≤ 0
same,scaled lipid accumulation score,library stock concentration: 18.2 mM,inactive: ≤ 0
Cc1cc(O)cc(C)c1Cl [Chloroxylenol],scaled lipid accumulation score,[1],inactive: ≤ 0
NC(=O)c1ccc(-c2nc(-c3ccccn3)c(-c3ccc4c(c3)OCO4)[nH]2)cc1,scaled lipid accumulation score,[2],inactive: ≤ 0
same,scaled lipid accumulation score,[6],inactive: ≤ 0
same,scaled lipid accumulation score,[1],inactive: ≤ 0 and inactive: 0.083
same,scaled lipid accumulation score,library stock concentration: 13 mM,inactive: 0.006
"Cc1cn(-c2cc(NC(=O)c3ccc(C)c(Nc4nccc(-c5cccnc5)n4)c3)cc(C(F)(F)F)c2)cn1 [Nilotinib (AMN107, Tasigna) (2 mM)]",scaled lipid accumulation score,[5],inactive: ≤ -0.005
Cc1cn(-c2cc(NC(=O)c3ccc(C)c(Nc4nccc(-c5cccnc5)n4)c3)cc(C(F)(F)F)c2)cn1,scaled lipid accumulation score,[3],inactive: ≤ -0.009
same,scaled lipid accumulation score,[4],inactive: 0.035
same,scaled lipid accumulation score,[5],inactive: ≤ -0.009
same,scaled lipid accumulation score,[1],inactive: ≤ -0.008
"Cc1cn(-c2cc(NC(=O)c3ccc(C)c(Nc4nccc(-c5cccnc5)n4)c3)cc(C(F)(F)F)c2)cn1 [Nilotinib (AMN107, Tasigna) (0.4 mM)]",scaled lipid accumulation score,[4],inactive: 0.053
"Cc1cn(-c2cc(NC(=O)c3ccc(C)c(Nc4nccc(-c5cccnc5)n4)c3)cc(C(F)(F)F)c2)cn1 [Nilotinib (AMN107, Tasigna) (10 mM)]",scaled lipid accumulation score,[1],inactive: 0.552
Cc1cn(-c2cc(NC(=O)c3ccc(C)c(Nc4nccc(-c5cccnc5)n4)c3)cc(C(F)(F)F)c2)cn1 [Nilotinib (AMN-107)],scaled lipid accumulation score,[6],inactive: 0.438
same,scaled lipid accumulation score,[1],inactive: 0.668
CCCCN(CCCC)CC(O)c1cc(Cl)cc2c1-c1ccc(Cl)cc1/C2=C/c1ccc(Cl)cc1 (configuration not stated) [Lumefantrine],scaled lipid accumulation score,[1],inactive: 0.051
"O=C(O)c1cc(=O)c2c(Cl)cc(Cl)cc2[nH]1 [5,7-Dichlorokynurenic acid]",scaled lipid accumulation score,[1],inactive: 0.031 and inactive: 0.027
CC(COc1ccccc1Cc1ccccc1)N1CCCCC1.O=P(O)(O)O (configuration not stated),scaled lipid accumulation score,[1],active: 1.02
CCCNC(=O)Nc1ccc(Oc2ncnc3cc(OC)c(OC)cc23)cc1Cl,scaled lipid accumulation score,[3],inactive: ≤ 0
same,scaled lipid accumulation score,[4],inactive: ≤ 0
same,scaled lipid accumulation score,[5],inactive: ≤ 0
same,scaled lipid accumulation score,[6],inactive: ≤ 0
same,scaled lipid accumulation score,[1],inactive: ≤ 0 and inactive: 0.284
CCCCC[C@H](O)/C=C/[C@H]1CC[C@@H](O)[C@@H]1CCCCCCC(=O)O [11-deoxy Prostaglandin F1.beta.],scaled lipid accumulation score,[2],inactive: ≤ 0
